Measured values as given in PubChem BioAssay AID2100 (National Center for Advancing Translational Sciences (NCATS), 2009).
In all, about 300,000 compounds went through this assay and about 1,200 (0.4%) were called active. The shares of active, inactive and inconclusive entries below differ from those in the screen. Calls follow the shape of the dose curve; as a rule, active = well fitted inhibition curve with a large enough effect; inconclusive = small, poorly fitted or top-dose-only effect, or another doubt; inactive = no such curve, though single readings can be large or run the other way. Potencies beside an inconclusive call are fits to weak or partial responses and may not hold up.

target: Lysosomal alpha-glucosidase (Homo sapiens) (UniProt P10253); assay: qHTS Assay for Inhibitors and Activators of Human alpha-Glucosidase Cleavage of Glycogen; conditions: recombinant GAA, glycogen substrate, Amplex Red glucose oxidase fluorescence; activity change, negative = inhibition: at 76.4 µM (top of the series) unless noted;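 as to activity change, negative = inhibition: 0% = full enzyme reaction and -100% = no-enzyme basal signal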
In short: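 qHTS, 1536-well; enzyme 4 nM final; cpd up to 77 uM; substrate bovine liver glycogen 30 ug; 50 mM citrate/phosphate pH 5.0, 0.01% Tween-20; 37 C, 40 min; Amplex Red detection 45 min RT; Hill fit → AC50.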
Potency is read from the fitted curve at half-maximal effect.

| Compound | Potency | activity change, negative = inhibition |
| --- | --- | --- |
| CCOc1ccccc1-c1c2cc(O)c(=O)cc-2oc2cc(O)c(O)cc12 | inconclusive: 15.8 µM [inhibitor, partial curve] |  |
| C=CCNc1oc(-c2ccc(OC)cc2)nc1C#N | inconclusive: 12.6 µM [inhibitor, partial curve] |  |
| COc1ccc(OC)c(S(=O)(=O)Nc2ccc(O)c(Sc3ncn[nH]3)c2)c1 | inconclusive: 20 µM [inhibitor, partial curve] |  |
| Cc1cccc(C)c1NC(=S)NNc1ncc(C(F)(F)F)cc1Cl | inconclusive: 28.2 µM [inhibitor, partial curve] |  |
| CN(C)S(=O)(=O)c1cccc(-c2csc(N/N=C/c3ccco3)n2)c1 | inconclusive: 44.7 µM [inhibitor, single point] |  |
| O=C(Nc1ccncc1)c1cncc(Br)c1 | inconclusive: 8.91 µM [inhibitor, single point] |  |
| c1ccc(Nc2c(-c3c[nH]c4ccccc34)nc3ccccn23)cc1 | inconclusive: 12.6 µM [inhibitor, partial curve] |  |
| Cc1ccc(C)c(NC(=S)NNc2ccc(F)cc2F)c1 | inconclusive: 31.6 µM [inhibitor, single point] |  |
| COCCCNc1nc2c(c(=O)[nH]c(=O)n2C)n1CC(O)COc1ccccc1C (stereo not drawn) | inconclusive: 7.08 µM [activator, partial curve] |  |
| Cc1c(NC(=O)Nc2cccs2)cccc1[N+](=O)[O-] | inconclusive: 12.6 µM [inhibitor, partial curve] |  |
| CCN(CC)S(=O)(=O)c1cccc(C(=O)N/N=C2\CCCC(=O)C2)c1 | inconclusive: 15.7 µM [inhibitor, partial curve] |  |
| O=C(O)CSCC(=O)NCc1ccc(Cl)cc1 | inconclusive: 25.1 µM [activator, partial curve] |  |
| CC1C/C(=N/N2C(=O)CSC2=S)CC(C)(C)C1 (stereo not drawn) | inconclusive: 19.8 µM [inhibitor, partial curve] |  |
| COc1ccc(NC(=S)NNC(=S)Nc2cccc(C(F)(F)F)c2)cc1 | active: 4.47 µM |  |
| O=C(NC1CCCCC1)C(c1ccncc1)N(Cc1ccc(F)cc1)C(=O)c1ccccn1 (stereo not drawn) | inconclusive: 5.01 µM [inhibitor, full curve] |  |
| Fc1ccc(Nc2c3c(nc4ccccc24)CCC3)cc1 | inconclusive: 14.1 µM [inhibitor, partial curve] |  |
| Nc1ccc2c(c1)-c1ccccc1S(=O)(=O)N2 | inconclusive: 35.2 µM [inhibitor, single point] |  |
| Cc1cc(Cl)ccc1NNC(=O)CCc1ccccc1 | inconclusive: 20 µM [inhibitor, partial curve] |  |
| Cc1cc(O)c(C(C)C)cc1N=C1CSC(=O)N1 | active: 17.6 µM |  |
| Oc1ccccc1N1CCN(C(=S)NCc2ccccc2)CC1 | inconclusive: 5.01 µM [inhibitor, full curve] |  |
| O=C(CN1C(=O)COc2ccccc21)Nc1ccc(F)cc1 | inconclusive: 14 µM [inhibitor, partial curve] |  |
| O=C(Nc1nnc(-c2ccccc2)o1)Nc1ccccc1Cl | inconclusive: 3.55 µM [inhibitor, single point] |  |
| CCc1ccccc1NNC(=O)c1snnc1C | inconclusive: 12.6 µM [inhibitor, partial curve] |  |

| Compound | Potency | activity change, negative = inhibition |
| --- | --- | --- |
| Oc1nc(-c2ccc(Br)cc2)n2ccncc12 | inconclusive: 28.2 µM [inhibitor, partial curve] |  |
| COCCCNc1oc(/C=C/c2cc(OC)c(OC)c(OC)c2)nc1C#N | inconclusive: 39.8 µM [inhibitor, partial curve] |  |
| O=C(CN1CCN(c2ccc(O)cc2)CC1)Nc1ccc2c(c1)OCCO2 | inconclusive: 7.03 µM [inhibitor, full curve] |  |
| Cc1ccc(S(=O)(=O)Nc2cc3c(cc2NCc2ccccc2)n(C)c(=O)n3C)c(C)c1 | inconclusive: 28.2 µM [inhibitor, single point] |  |
| Cc1[nH]n(-c2cccc(Cl)c2)c(=O)c1-c1ccccc1 | inconclusive: 25.1 µM [inhibitor, partial curve] |  |
| CC(=O)c1cccc(NC(=O)Cn2nc(C)n3cccc3c2=O)c1 |  | inconclusive: 8.67% [activator] [at 76.3 µM] |
| CC(C)c1ccc(O)c(NC(=S)NC(=O)CCc2ccccc2)c1 | inconclusive: 12.6 µM [inhibitor, partial curve] |  |
| Cc1cc(-c2ccccc2)nc2[nH]n(-c3ccccc3)c(=O)c12 | active: 35.5 µM |  |
| NC(=O)NNc1ncc(C(F)(F)F)cc1Cl | inconclusive: 31.6 µM [inhibitor, partial curve] |  |
| COc1ccc(/C(N)=N/OC(=O)CSc2ccc(C)cc2)cc1OC | inconclusive: 6.26 µM [inhibitor, single point] |  |
| S=C(NNc1ccc2ccccc2c1)NC1CCCCC1 | inconclusive: 31.6 µM [inhibitor, single point] |  |
| CC(=O)NNc1cc(N2CCOCC2)nc(N2CCOCC2)n1 | inconclusive: 35.5 µM [inhibitor, single point] |  |
| CC(=O)C(Cl)C(=O)Nc1ccccc1 (stereo not drawn) | inconclusive: 28 µM [activator, partial curve] |  |
| CCOC(=O)C1CCN(S(=O)(=O)c2ccc3c(c2)CC(=O)N3)CC1 | active: 14.1 µM |  |
| COc1ccc(OC)c(NC(=O)NC2(C(F)(F)F)Oc3ccccc3O2)c1 | active: 35.5 µM |  |
| CCOc1c(Cl)cc(CNc2ccc3[nH]c(=O)[nH]c3c2)cc1OC | inconclusive: 0.891 µM [inhibitor, full curve] |  |
| Cc1ccc(-c2cnc(-c3ccccc3C(=O)O)o2)cc1 | inconclusive: 11.2 µM [inhibitor, single point] |  |
| COc1ccc(NC(=O)NC(C)c2c(-n3cccc3)sc(C)c2C)cc1OC (stereo not drawn) | inactive |  |
| Cc1ccc(C2c3sc(=O)[nH]c3SC3C(=O)NC(=O)C32)cc1 (stereo not drawn) | inconclusive: 28.2 µM [inhibitor, partial curve] |  |
| COc1cc(/C=N/NC(=O)CNc2n[nH]c(=O)[nH]c2=O)ccc1O | inconclusive: 35.5 µM [inhibitor, partial curve] |  |
| O=C(O)C1Cc2[nH]cnc2C(c2cccc([N+](=O)[O-])c2)N1 (stereo not drawn) | inconclusive: 39.8 µM [activator, single point] |  |
| CC1(C)CC(NNCCC#N)=CC(=[N+]2CCCC2)C1 | inconclusive: 22.4 µM [inhibitor, partial curve] |  |
| Cc1nc(Nc2ccccc2)sc1C | inconclusive: 31.6 µM [inhibitor, single point] |  |

| Compound | Potency | activity change, negative = inhibition |
| --- | --- | --- |
| O=C(CSc1ccc2ccccc2c1)NCCc1ccc(O)c(O)c1 | inconclusive: 3.16 µM [inhibitor, full curve] |  |
| COCCCNC(=S)NNC(=O)c1cc(Cl)c(O)c(Cl)c1 | inconclusive: 17.8 µM [inhibitor, partial curve] |  |
| CC1(C)CC(=O)C=C(NNC(=O)OC(C)(C)C)C1 | inconclusive: 31.6 µM [inhibitor, single point] |  |
| COCc1cc(C2C(C(=O)c3ccco3)=C(O)C(=O)N2CCOCCO)ccc1O (stereo not drawn) | inconclusive: 28 µM [inhibitor, partial curve] |  |
| COc1cc(OC)cc(C(=O)NNC(=O)c2ccccn2)c1 | inactive |  |
| Cc1ccccc1Nc1c(-c2c[nH]c3ccccc23)nc2ccc(Cl)cn12 | inconclusive: 3.16 µM [inhibitor, full curve] |  |
| Cc1cccc(OC(=O)CSc2nnc(-c3cccs3)o2)c1C | inactive |  |
| CC(C)Oc1ccc(Cn2c(-c3ccco3)n[nH]c2=S)cc1 | inconclusive: 28 µM [inhibitor, partial curve] |  |
| Cc1c(NC(=O)Cc2ccc(Cl)cc2)cccc1-c1nc2cccnc2s1 | inactive |  |
| Cc1cc2c(Nc3ccc(O)cc3)ncnc2s1 | inconclusive: 50.1 µM [inhibitor, single point] |  |
| CCN(CC)c1ccc(NC(=S)NC(=O)c2ccco2)cc1 | active: 11.1 µM |  |
| Oc1ccc(N2CCN(c3nnnn3-c3ccccc3)CC2)cc1 | active: 3.98 µM |  |
| O=C1OC(Oc2ccccc2)(c2ccccc2)c2ccccc21 (stereo not drawn) | inconclusive: 39.5 µM [inhibitor, single point] |  |
| CCOc1ccc(NCCC(=O)c2ccc3c(c2)OCO3)cc1 | inconclusive: 28 µM [inhibitor, partial curve] |  |
| CCOc1ccc2c(c1)c(=O)c(C(=O)c1ccc(CC)cc1)cn2CC(=O)Nc1ccc2c(c1)OCCO2 | inconclusive: 50.1 µM [inhibitor, single point] |  |
| Cc1ccccc1NNC(=O)C(=O)NNc1ccccc1C | inconclusive: 11.2 µM [inhibitor, full curve] |  |
| Cn1nnc(NC(=S)NC(=O)c2ccco2)n1 | inconclusive: 35.5 µM [inhibitor, single point] |  |
| COc1cc(C2C=C(C(=O)O)Nc3ncnn32)ccc1O (stereo not drawn) | inconclusive: 39.8 µM [inhibitor, partial curve, poor fit] |  |
| COc1ccc(Cl)cc1NC(=O)Cn1c(=O)n2nc(-c3ccccc3)nc2c2ccccc21 | inconclusive: 7.94 µM [inhibitor, partial curve] |  |
| CNc1oc(-c2ccccc2)nc1C#N | inconclusive: 24.9 µM [inhibitor, partial curve] |  |
| COC(=O)c1ccccc1S(=O)(=O)NNC(=O)Nc1ccccc1 | inconclusive: 31.6 µM [inhibitor, single point] |  |
| CC1=NN(Cc2ccccc2)C(=O)C1C(c1ccc(Cl)cc1)C(C#N)C#N (stereo not drawn) | inconclusive: 31.4 µM [inhibitor, partial curve] |  |
